Results from PubChem BioAssay (NCI).
“And” between values parts separate entries of the source, which are not always exact repeats. Equal entries are not always repeated.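 48-hour exposure; five concentrations; linearly interpolated endpoints. Here, GI50 denotes the concentration required for 50% inhibition of growth. Definition used: TGI = concentration required for complete inhibition of growth.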 Square brackets hold non-standard residues; d marks the D form. Peptide text beside a SMILES is read from it. * marks the point of attachment. ξ: configuration not given here. ξNMe2Val = CC(C)C(C(=O)*)N(C)C; NMeV = CN[CH](C(=O)O)C(C)C; NHBn = c1ccc(CN*)cc1

The compounds below were run on NCI-H322M lung (assay: growth of human tumour cells (NCI), 48 h).
`Cc1cnc2n1S(=O)(=O)c1cc(C(=O)Nc3cccc4nsnc34)c(Cl)cc1S2` showed a GI50 of 13.4 µM and a TGI of 26.6 µM. For `Nc1nc(Cl)cc(NCC2(O)CCC2)n1`, the TGI was greater than 100 µM. `COc1ccc(C(=O)C#Cc2cn(C3CC(O)C(CO)O3)c(=O)[nH]c2=O)cc1` (stereo not drawn) showed a TGI greater than 100 µM. `CCOC(=O)c1cnc(N(C)C)nc1SC(=N)N` was tested, and the TGI was greater than 100 µM. `CC1=NN(c2nc(N)nc(CN3CCOCC3)n2)C(C)(C)C1` was tested, and the TGI was greater than 100 µM. `NCCSSCc1ccccc1CSSCCN` was tested, and the TGI was greater than 100 µM. In the case of `Cc1c2ccccc2c(C2C3C(=O)N(c4ccc(Br)cc4)C(=O)C3ON2C(C(N)=O)c2ccccc2)c2ccccc12` (stereo not drawn), the TGI is reported as greater than 100 µM. Compound `CCOC(=O)Cc1c(C)c2cc(C(=O)c3ccccc3)c(O)cc2oc1=O` has a TGI greater than 100 µM. For `CCOC(=O)Cc1csc(NC(NC(=O)OCC)(C(=O)OCC)C(F)(F)F)n1` (stereo not drawn), the TGI was greater than 100 µM. Work on `Cc1ccc(CC(Cc2ccccc2C)C(=O)O)c(C(=O)O)c1` (stereo not drawn) yielded a TGI greater than 100 µM. `COC(=O)c1c([N+](=O)[O-])ncn1[C@H]1OC[C@@H](OC(C)=O)[C@@H](OC(C)=O)[C@@H]1OC(C)=O` was tested, and the TGI was greater than 100 µM. `N#C/C(=C\c1cc(O)cc(O)c1)C(N)=O` gave a TGI greater than 100 µM. In the case of `COc1ccc(C(=O)C(CN(C)C)CN(C)C)cc1`, the GI50 is reported as 16.4 µM and the TGI is reported as 32 µM. `C[C@H](C1CC(C)(O)C(C)(O)C(O)O1)[C@H]1CC[C@H]2[C@@H]3[C@@H]4O[C@@H]4[C@@]4(O)CC=CC(=O)[C@]4(C)[C@H]3CC[C@]12C` (stereo partly drawn) showed a TGI greater than 50 µM. Compound `COc1cc(/C=C/c2cc(/C=C/c3ccc(O)c(OC)c3)n(C(=O)c3ccc(Cl)cc3)n2)ccc1O` has a GI50 of 3.03 µM and a TGI of 14.1 µM. With `C=CC(=O)Nc1ccc(NC(=O)C=C)c2c1C(=O)c1ccccc1C2=O` the TGI was greater than 100 µM. For `CNC(=O)c1c(C)oc2cc(Oc3ncnc4cc(OC)c(OC)cc34)ccc12`, the GI50 was greater than 100 µM and the TGI was greater than 100 µM. `O=C(C(=O)c1cc2ccccc2[nH]1)c1cc2ccccc2[nH]1` gave a TGI greater than 347 µM. Work on `CNC(=O)C(C)NC(=O)C(Cc1ccccc1)NC(=O)c1ccccc1` (stereo not drawn) yielded a TGI greater than 100 µM. With `NC(=O)NNC(=O)CCn1[nH]c(=O)c(Cl)c(Cl)c1=O` the TGI was greater than 100 µM. For `O=c1c2c(nc3n1CCS3)[nH]c1cc([N+](=O)[O-])ccc12`, the GI50 was greater than 100 µM and the TGI was greater than 100 µM. With `CC[C@H](C)[C@H](NC(=O)[C@H]1CCCCN1C)C(=O)N(C)[C@H](C[C@@H](OC(C)=O)c1cccc(C(=O)N[C@@H](Cc2ccccc2)C[C@H](C)C(=O)OC)n1)C(C)C` the GI50 was 0.00463 µM and 0.0109 µM and the TGI was greater than 25 µM. Work on `O=C(O)CSc1n[nH]c(=O)[nH]c1=O` yielded a TGI greater than 100 µM. In the case of `O=c1oc2ccc3ccccc3c2cc1-c1nnc(Nc2ccccc2)s1`, the TGI is reported as greater than 100 µM. For `O=C(CCC(=O)Nc1ccc(Cl)c(Cl)c1)Cc1nc2ccccc2o1`, the TGI was greater than 100 µM. In the case of `Cc1ccc(O)c(Cc2nc3ccccc3nc2-c2cccc(Cl)c2)c1`, the TGI is reported as greater than 100 µM. Compound `COc1ccccc1/C=C/c1ccnc2ccccc12` has a TGI of 34.9 µM. In the case of `NS(=O)(=O)OC[C@H]1C[C@@H](Nc2ccnc3cc(-c4cccc(SC(F)(F)F)c4)nn23)[C@H](O)[C@@H]1O`, the GI50 is reported as 0.0248 µM and the TGI is reported as 0.0718 µM. `Cc1nc2sccn2c1C(=O)NN` gave a TGI greater than 100 µM. In the case of `NNC(=O)C(=O)N/N=C(\CCCC(=O)Nc1ccc(Cl)cc1)CC(=O)c1ccc(F)cc1`, the TGI is reported as greater than 100 µM. Compound `CC(/C=C/C(=O)NO)=C\C(C)C(=O)c1ccc(N(C)C)cc1` (stereo not drawn) has a TGI of 13.2 µM. In the case of `CN1C(=O)C2(C)SC1(c1ccccc1)C1C(=O)N(c3ccccc3)C(=O)C12` (stereo not drawn), the TGI is reported as greater than 100 µM. Work on `COc1cc2c(cc1OC(C)C)[C@H](c1ccc(Cl)cc1)N(c1ccc(N(C)CC3CCC(N4CCN(C)C(=O)C4)CC3)cc1)C(=O)C2` (stereo partly drawn) yielded a GI50 of 2.94 µM and a TGI of 18.2 µM. `O=C1/C(=C\c2ccc(Cl)cc2)N=C(c2ccccc2)N1n1c(=O)cn[nH]c1=S` gave a TGI greater than 100 µM. For `COc1ccc2c3c1OC1C(F)C=CC4(O)C(C2)NCCC314` (stereo not drawn), the TGI was 18.5 µM. `COc1ccc(C(CC2(c3ccc(OC)cc3)SCCCS2)NC(C)=O)cc1` (stereo not drawn) was tested, and the TGI was greater than 100 µM. Compound `O=c1ccc2ccc(OP(=O)(O)O)cc2o1` has a TGI greater than 100 µM. For `C=CCN(c1cc(OC)c(NC(C)=O)cc1[N+](=O)[O-])S(C)(=O)=O`, the TGI was greater than 100 µM. `CC(C)C[C@H](NC(=O)CNC(=O)c1cc(Cl)ccc1Cl)B(O)O` was tested, and the GI50 was 0.511 µM and the TGI was 12.6 µM. In the case of `CC(C)C(NC(=O)C(C(C)C)N(C)C)C(=O)N(C)C(C(=O)N1CCCC1C(=O)N1CCCC1C(=O)NCc1ccccc1)C(C)C` (stereo not drawn) (ξNMe2Val-V[NMeV]PP-NHBn; configuration not given here), the TGI is reported as greater than 100 µM. Compound `Cc1ccc(O)c(NC(=O)c2cccc(Nc3ccnc(C(F)(F)F)c3)c2)c1` has a GI50 of 13.1 µM and a TGI of 74.9 µM. For `Cc1ccc(CC2(C(=O)O)Cc3ccc(C)cc3C2)cc1` (stereo not drawn), the TGI was greater than 100 µM. `CCOC(=O)C1=CCCC[C@H]1S(=O)(=O)Nc1ccc(F)cc1Cl` was tested, and the GI50 was 25.3 µM and the TGI was greater than 100 µM. With `CC(C)(O)C(O)COc1c2c(cc3oc(=O)ccc13)OCO2` (stereo not drawn) the TGI was greater than 100 µM. `O=C(CN(/C=C/C(=O)C(F)(F)F)c1ccc(Cl)cc1)c1ccc(Cl)cc1` was tested, and the GI50 was 12.2 µM and the TGI was 25.4 µM. `CCOC(=O)c1cc(C2CCN(c3ccccc3)C2=O)c(/C(O)=C/C(C)=O)[nH]1` (stereo not drawn) was tested, and the TGI was greater than 100 µM.
